Experimental data from the supplement of paper PMC11417369.
The list shows a part of the results.

system: PfHDP1 homeodomain (GST-tagged); experiment: gcPBM binding intensity (ln(normalized median fluorescence intensity)); higher = stronger DNA binding
Procedure, shortened: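 Each value is the highest Masliner-normalised natural-log median intensity across replicate spots of either orientation of a probe. The probes were primer-extended double-stranded 36-bp intergenic genomic sequences on an Agilent 4 × 180k array, alongside negative controls, exposed for 1 h to GST-tagged P. falciparum DNA-binding domains expressed in E. coli. Bound protein was picked up with Alexa488 anti-GST antibody and scanned at 488 nm.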

Compared with “ATAAAAAAATAAAACACACACATATATATTATATAT [CACACA_site2810]”, “AATGCATTGATTGCATTCAAAAAAAAAAAAAAAAAA [XGTACX_negctrl_site597]” is lower in “gcPBM binding intensity (ln)” value: 6.85 for the first, 6.34 for the second.

Going from “AATCATAAAGAACATATAATATATATATATATATAT [CACACA_negctrl_site316]” to “AATAAGATATCTACAACACACATTTAATTTTTTTTT [CACACA_site1641]”, the “gcPBM binding intensity (ln)” value falls from 9.08 to 6.31.

First: AATTGTCAGAGAATATGTACTTAAGTATTTATTGTT [XGTACX_site1947]
Second: AATATATGCTTTCGTTATATTAAATTCAATTTAATG [GTGCAC_negctrl_site76]
The “gcPBM binding intensity (ln)” value of the first is higher: 6.47 for the first, 6.37 for the second.

First: AACAACTATTAATTTACACACATGTATTTATTTTAC [CACACA_site5683]
Second: TCTTATATATTTATTTGTACATATATATATATATAT [XGTACX_site7214]
The “gcPBM binding intensity (ln)” value of the first is lower: 6.69 for the first, 9.35 for the second.

Compared with AAGGAATGCATATAGGTGCTACACATAAAAATAAAA, “TTAAGTAGTACATACACACACATATACAAAAAGAAA [CACACA_site3972]” is lower in “gcPBM binding intensity (ln)” value: 7.22 for the first, 7.2 for the second.

First: TACTTTTTTCCTATTATGTTTCTTATTTTTATAAAT [XGTACX_negctrl_site561]
Second: AAATTTTATGTATAATGTACACATAAATTTTTCTTT [XGTACX_site7266]
The “gcPBM binding intensity (ln)” value of the first is higher: 7.26 for the first, 6.67 for the second.

First: ATATAATAATAATATTGTACAATAAAAAATATATAT [XGTACX_site7350]
Second: ATACAGATAGGATGCACACATAATTCAAATACAATA [CACACA_site4531]
The “gcPBM binding intensity (ln)” value of the first is lower: 6.95 for the first, 8.32 for the second.

Compared with “AGTAATAATCGGCATGCATGTCAGTGGTAGTATATA [TGCATGCA_site312]”, “ATGTCAAGAACTGAACGTACAAACTTTGTAATATTG [XGTACX_site8754]” is lower in “gcPBM binding intensity (ln)” value: 6.84 for the first, 6.43 for the second.

Compared with “TCTAATAATAAATACACACACATATATATTTATATA [CACACA_site5169]”, “TTTTTTTTTGAAAAAAGTACTTAATTTTTAAGAAGA [XGTACX_site3591]” is lower in “gcPBM binding intensity (ln)” value: 6.47 for the first, 5.94 for the second.

Compared with “TTTATATATTAATATGCACACACAAGAAGTAATTAT [CACACA_site9045]”, “AATAATAACATACAGACACACACGTAAAAGCACGTG [CACACA_site253]” is lower in “gcPBM binding intensity (ln)” value: 9.97 for the first, 6.66 for the second.

Compared with “ATATATACGTATGAATGTATATTTGTTTGAATTTTT [CACACA_negctrl_site524]”, “AATGGGTAAACATACACACACACATATATATATATA [CACACA_site1991]” is higher in “gcPBM binding intensity (ln)” value: 6.18 for the first, 9.19 for the second.

Compared with “TATATATATTAAAAAGTGCATTATTCATATTATATA [GTGCAC_site9400]”, “TTACAATTTAATATATGTACATATTTGTGATTTATC [XGTACX_site2911]” is lower in “gcPBM binding intensity (ln)” value: 8.25 for the first, 6.37 for the second.

Going from “TATAATGTTAAATAATGTACATATATTTTTTTTTTT [XGTACX_site4722]” to “AAAATATCTTGTTACTGTACAAATATAAATAAATAC [XGTACX_site3684]”, the “gcPBM binding intensity (ln)” value rises from 6.29 to 6.44.

First: TTTATTAATAATTATACACACATATAAAATGAATAA [CACACA_site1359]
Second: GGAATATTAAAAAAATGTACAAAAAATAATATCCAT [XGTACX_site2596]
The “gcPBM binding intensity (ln)” value of the first is lower: 6.33 for the first, 6.88 for the second.

First: TATTAATATTTTTGTTGTACTTAAAAATGATGGTAG [XGTACX_site3501]
Second: CATATACACGAACACACACACATATAAATAAATATA [CACACA_site6379]
The “gcPBM binding intensity (ln)” value of the first is lower: 6.5 for the first, 7.23 for the second.

First: TATTATTTTAATTATTCACACATTATTATAAAAATT [CACACA_site5538]
Second: TTATGTCATAAATGCACACATATACATTGTTTTGAT [CACACA_site646]
The “gcPBM binding intensity (ln)” value of the first is lower: 6.26 for the first, 10.4 for the second.

Compared with “TCTTTAACAAGTTAAACACACATACATAAATACATA [CACACA_site5406]”, “GGGAAAATATTTGGGTGTACAAACAAATTAGCTAGC [XGTACX_site6795]” is higher in “gcPBM binding intensity (ln)” value: 6.54 for the first, 6.75 for the second.

Compared with “TATGATTTCACATAATGTACTTGCTAATTCGTGAAT [XGTACX_site1408]”, “ATATAAATAAACAGGTGTACTATAATGTTCATAGTA [XGTACX_site1553]” is higher in “gcPBM binding intensity (ln)” value: 5.94 for the first, 6.41 for the second.

Going from “AAGAAAATATAAAATGCACACTATAAATTGTATTTA [CACACA_site4257]” to “TAATTATATATATATGCATGTTATAATTTTTATTTT [TGCATGCA_site78]”, the “gcPBM binding intensity (ln)” value falls from 9.23 to 6.16.

Going from “CAAAAAATTTGACGTAGTACTTAAAAAAAAAAAAAA [XGTACX_site4523]” to “ATTTGCTCACAAGAAGCACACAAAAAAAGAAAAAAA [CACACA_site9338]”, the “gcPBM binding intensity (ln)” value rises from 6.43 to 7.34.

Going from “TATTTGCTACATATATGTACTAAAAACTTTTTGCTT [XGTACX_site2362]” to “TATTATAAAAATATTCAGATACATTAACTTACTTTT [XGTACX_negctrl_site4]”, the “gcPBM binding intensity (ln)” value falls from 7.17 to 5.83.

Going from “TGTGTGTGTTCATGGGTGCTTTAATACTATTATAGG [GTGCAC_site9465]” to “TATCAATTTTTCTGGCTATCCAATTAGGGGAAGCCA [CACACA_negctrl_site1045]”, the “gcPBM binding intensity (ln)” value falls from 7.19 to 5.47.

First: GAAAATGAAATCCTTGCATGTAAAATTAAAATAGAA [TGCATGCA_site569]
Second: TTTTTTTCTTAAAGATGTACTTTTTAAAAATAATCT [XGTACX_site1429]
The “gcPBM binding intensity (ln)” value of the first is higher: 6.29 for the first, 6.18 for the second.

First: GTAGTAATAAATTAAAGTACAGAATATATTATACTA [XGTACX_site2809]
Second: ATGAATTATAAATATTCACACAATATTTTTCATATG [CACACA_site4484]
The “gcPBM binding intensity (ln)” value of the first is higher: 6.4 for the first, 6.38 for the second.

Compared with “AGTGTGCTCAGCTTAGCACAAATTGGAATACCATGT [CACACA_negctrl_site367]”, “TTTACAGGAAAAAATACACACATTATTTTACCTTAT [CACACA_site2833]” is lower in “gcPBM binding intensity (ln)” value: 8.85 for the first, 6.46 for the second.

First: ACATGCCAAAATCTAATACAATAATAATAAAAAAAA [XGTACX_negctrl_site160]
Second: CAATAAAAATTAAAATGTACAAATAAATATAAATAT [XGTACX_site7265]
The “gcPBM binding intensity (ln)” value of the first is lower: 6.32 for the first, 6.36 for the second.

Compared with “ACAAAACTTTTAAGAACACACAAAAATGTACTATCG [CACACA_site7245]”, “CATTTACATGCCAACATGCACTGAACAATCTTTATA [GTGCAC_site9797]” is higher in “gcPBM binding intensity (ln)” value: 6.17 for the first, 7.98 for the second.

Going from “TACAAAAAAAAATAAAATACATATATATATATATAT [XGTACX_negctrl_site608]” to “CCCTATATAAATAGCTGTACATTTGAACATGTTCAG [XGTACX_site2187]”, the “gcPBM binding intensity (ln)” value falls from 9.32 to 6.52.

Going from “TTTTATGAATAATTATGTACATAACAAATGATATAT [XGTACX_site8318]” to “TAAAGTTATATATTATGTACATATTTGTATACATTT [XGTACX_site2516]”, the “gcPBM binding intensity (ln)” value falls from 6.84 to 6.46.

First: TTTTTTTATACAATTTTATATATTAAATATTATAAT [CACACA_negctrl_site226]
Second: AAAGAAAACGGACTTTGTACTTAAATATAATATAAA [XGTACX_site8585]
The “gcPBM binding intensity (ln)” value of the first is lower: 6.46 for the first, 6.47 for the second.

Going from CAATAAATCGAAATCGTGCACGGACACATGCAGTAG to “ATATATATAATAAGTGGTACAAGTTATTCATTAAAT [XGTACX_site7063]”, the “gcPBM binding intensity (ln)” value falls from 10.9 to 6.72.

Going from “GGTTCATTTATATGGAGTACAAAAAATATGTATATA [XGTACX_site8209]” to “AAATAATATAAATACACACACACATATATAAATACA [CACACA_site4465]”, the “gcPBM binding intensity (ln)” value rises from 6.59 to 7.06.

Compared with “TTATGTGATTTTAATTGTACATAAATATTTGTTAAC [XGTACX_site3489]”, “TATATACTCAGACATACACACAAATAAAAAAACACC [CACACA_site5820]” is higher in “gcPBM binding intensity (ln)” value: 6.71 for the first, 7.58 for the second.

Compared with “CACGCATACAGACACACACACACACGGATATAAATA [CACACA_site6445]”, “AAATATAGTATTAAAACACACATTTATATAAAAAGG [CACACA_site1482]” is lower in “gcPBM binding intensity (ln)” value: 7.12 for the first, 6.51 for the second.

Compared with “AACAAAAAAACAAACACACACACACGCATATTTATA [CACACA_site7680]”, “TGAACTCATAGGAAAACACACATATGTGTAATATAT [CACACA_site4267]” is higher in “gcPBM binding intensity (ln)” value: 6.71 for the first, 7.27 for the second.

First: AAAAACAACACAGATAAATTAACACACACACACATA [XGTACX_negctrl_site588]
Second: TATTTGTATAAATAAAAATAATATATATCAAATAAC [CACACA_negctrl_site218]
The “gcPBM binding intensity (ln)” value of the first is higher: 7.34 for the first, 6.4 for the second.

First: AACACCCACAGACACACACACAAAAATGATTAAAAA [CACACA_site2433]
Second: TTTTTATATAAATAATGTACATTTGGTTTTATTATA [XGTACX_site2125]
The “gcPBM binding intensity (ln)” value of the first is higher: 6.82 for the first, 6.78 for the second.

Compared with “ACAAAAATATTATATTGTACATTATTAGTTCATATT [XGTACX_site6750]”, “CATATATATAATTATTCACACAATAGTTAAAAGTAT [CACACA_site5302]” is higher in “gcPBM binding intensity (ln)” value: 6.32 for the first, 6.62 for the second.

Going from “TTTTTTTTTGAATATTGTACATATATATTACTTTTA [XGTACX_site5520]” to “AAAAAATTATATAAATGTACATTTTGGCTAGACATG [XGTACX_site5977]”, the “gcPBM binding intensity (ln)” value rises from 6.51 to 6.54.

Compared with “TACATAAATTAAAACACACACACACTAATAAAAAAA [CACACA_site8712]”, “ATATGTATGTATGTATGTACTTATTTATTTATTAAT [XGTACX_site8018]” is lower in “gcPBM binding intensity (ln)” value: 6.9 for the first, 6.25 for the second.

Going from “TAGCTCGTTCGGAGCACACACATATATATATATATA [CACACA_site1948]” to “ATTCAATATATATACACACACACTTTTAATAATTAA [CACACA_site3770]”, the “gcPBM binding intensity (ln)” value falls from 9.28 to 6.95.

Going from “GTTTTATTTTGTTTCTATTTGACACATGTGATTATT [CACACA_negctrl_site1246]” to “ATATGTATTTATATATGTTTGATTTTTTTTTTTTTT [TGCATGCA_negctrl_site506]”, the “gcPBM binding intensity (ln)” value falls from 7.01 to 6.23.

Going from “CATACAGACATACATACACACATACCTATAAATATA [CACACA_site6995]” to “AAATGAAATAAAATCATATATTTATAATTATTATAA [TGCATGCA_negctrl_site612]”, the “gcPBM binding intensity (ln)” value falls from 6.95 to 6.07.

Compared with “AGGAAAAAAGAAAAAACACACATAAATATATATATA [CACACA_site3085]”, ATATTCTGCTGTTTAGTGCAATTATGAAATTATGAT is higher in “gcPBM binding intensity (ln)” value: 8.71 for the first, 8.91 for the second.
